# Out of some 310,000 compounds screened, about 2,200 (0.71%) showed an effect of 50% or more. The effect is printed as a negative number. The list shows a part of the results.
# Target: human ether-à-go-go-related gene (hERG) potassium channel (human, UniProt Q12809)
# Experiment: primary screen, population patch clamp on CHO cells stably expressing hERG
# Sequence of human ether-à-go-go-related gene (hERG) potassium channel (Q12809 whole entry, looked up): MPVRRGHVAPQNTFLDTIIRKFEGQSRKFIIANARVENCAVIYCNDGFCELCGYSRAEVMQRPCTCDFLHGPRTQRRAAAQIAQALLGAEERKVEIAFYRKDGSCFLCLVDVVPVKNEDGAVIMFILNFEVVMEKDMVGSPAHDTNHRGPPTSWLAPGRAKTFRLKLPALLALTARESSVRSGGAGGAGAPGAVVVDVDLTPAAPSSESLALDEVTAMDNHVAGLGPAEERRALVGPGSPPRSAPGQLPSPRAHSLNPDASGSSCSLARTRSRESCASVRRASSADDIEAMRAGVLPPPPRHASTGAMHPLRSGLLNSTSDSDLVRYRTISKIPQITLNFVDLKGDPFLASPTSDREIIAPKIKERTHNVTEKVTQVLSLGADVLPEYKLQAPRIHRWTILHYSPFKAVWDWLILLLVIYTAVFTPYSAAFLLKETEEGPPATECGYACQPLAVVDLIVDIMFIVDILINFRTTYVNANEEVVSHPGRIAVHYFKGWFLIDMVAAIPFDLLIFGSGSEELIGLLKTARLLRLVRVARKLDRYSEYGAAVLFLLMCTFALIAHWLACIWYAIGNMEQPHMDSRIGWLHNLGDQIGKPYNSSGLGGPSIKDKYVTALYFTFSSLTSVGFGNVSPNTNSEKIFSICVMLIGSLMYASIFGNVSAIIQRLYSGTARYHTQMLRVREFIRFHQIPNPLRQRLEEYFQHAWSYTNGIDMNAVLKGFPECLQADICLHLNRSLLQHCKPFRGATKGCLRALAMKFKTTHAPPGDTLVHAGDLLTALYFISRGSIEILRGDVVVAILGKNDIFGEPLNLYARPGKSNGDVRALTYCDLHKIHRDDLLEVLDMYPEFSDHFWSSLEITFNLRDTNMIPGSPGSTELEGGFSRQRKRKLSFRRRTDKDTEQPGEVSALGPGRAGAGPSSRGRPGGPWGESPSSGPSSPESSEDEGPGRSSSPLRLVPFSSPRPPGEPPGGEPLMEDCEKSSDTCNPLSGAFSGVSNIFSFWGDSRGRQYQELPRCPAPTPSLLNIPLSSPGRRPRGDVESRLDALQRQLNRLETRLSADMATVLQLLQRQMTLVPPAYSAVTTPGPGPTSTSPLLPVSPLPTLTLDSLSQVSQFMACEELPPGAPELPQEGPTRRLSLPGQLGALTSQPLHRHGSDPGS
row,Compound,"hERG current change (%, negative = inhibition) at 1uM [%]"
1,Cc1cccc2c(C(=O)N3CCN(c4ccccc4)CC3)cc(-c3ccncc3)nc12,8.96
2,O=C(CNC(=O)c1ccccc1Cl)c1ccccc1,19
3,CCOC(=O)N1CCC2(CC1)C(C#N)=C(N)Oc1c2c(C)nn1-c1cccc(Cl)c1,6.91
4,O=C(O)CCSc1nc2ccc(Br)cc2[nH]1,2.74
5,O=C(O)c1cc(O)ccc1-c1ccc(O)cc1,8.59
6,C=CCN(c1ccc(C(=O)NCCN2CCOCC2)cc1)S(C)(=O)=O,3.57
7,CCN(Cc1ccccc1)C(=O)COC(=O)Cn1cnc2ccccc21,-5.98
8,Cc1ccc(Nc2nc(CSc3nnc(-c4cccnc4)n3-c3ccccc3C)cs2)cc1,6.22
9,CC(=O)NCc1ccc(C(=O)CSc2nnc(-c3ccncc3)n2Cc2ccccc2)o1,10.7
10,C=CCn1c(SCC(=O)Nc2cccc3ccccc23)nc(O)c(CC)c1=O,5.01
11,FC(F)(F)c1nc(-c2cccnc2)ncc1-c1nnnn1-c1ccccc1,5.46
12,Cc1cccc(CN2CCN(CC(=O)N3CCC4(CC3)OCCO4)C2=O)c1,25
13,CCn1ccnc1CN(C)Cc1cn[nH]c1-c1ccc(OC)c(F)c1,6.44
14,O=C(Nc1ccc2ccccc2c1)c1cccnc1,4.32
15,CCOC(=O)c1ccc2ncc(C(=O)OCC)c(Nc3ccc(N4CCOCC4)cc3)c2c1,11.8
16,CC1CCCN(CCCNC(=O)c2nn(C)c3c2CSc2ccccc2-3)C1 (stereo not shown),-66.2
17,O=C(Nc1nc2ccc(S(=O)(=O)N3CCCC3)cc2s1)C1CCCO1 (stereo not shown),6.76
18,CN(C)c1ccc(N=Nc2ccccc2C(=O)OCC(=O)NC2CCCC2)cc1,7.99
19,O=C(NC(Cc1ccccc1)C(=O)N1CCC2(CC1)OCCO2)C1CCCCC1 (stereo not shown),5.75
20,CNS(=O)(=O)c1c(C)cc(C)c(N(C)S(=O)(=O)c2ccccc2)c1C,7.59
21,O=C(COC(=O)CC(c1ccccc1)c1ccccc1)NCc1ccc(Cl)cc1,3.79
22,Cc1ccc(C(=O)NCCCNC(=O)c2ccco2)cc1,10.4

row,Compound,"hERG current change (%, negative = inhibition) at 1uM [%]"
1,CC1Cc2cc(S(=O)(=O)N3CCN(c4ccccc4)CC3)ccc2N1C(=O)C1CC1 (stereo not shown),17.8
2,CCSc1nnc(NC(=O)c2nc3nc(C)cc(C)n3n2)s1,5.24
3,O=C(NCC1CCCN(Cc2cccc(OCCO)c2)C1)c1ccc(F)cc1 (stereo not shown),2.83
4,Cc1cc(C)c2[nH]c(=O)c(CN(CC3CCCO3)S(=O)(=O)c3ccc4c(c3)OCCO4)cc2c1 (stereo not shown),11.5
5,O=C(CSc1ncnc2c1oc1ccccc12)NCc1ccco1,-0.31
6,Cc1nn(-c2ccc([N+](=O)[O-])cc2)c(N)c1-c1ccccc1,3.5
7,Cn1cnnc1SCc1ccc(C(=O)N/N=C/c2cccs2)cc1,10.6
8,CCC(=O)N1CCN(c2ccccc2NC(=O)c2ccc(OC)c(Cl)c2)CC1,0.652
9,CN(Cc1ccccc1)S(=O)(=O)c1ccc(S(=O)(=O)N(Cc2ccc(F)cc2)C2CCCC2)cc1,-3.52
10,COc1ccccc1-n1c(C)nc2cc(C(=O)NCC3CCCO3)ccc21 (stereo not shown),-3.45
11,CCOc1cc(C(=O)NN2CCOCC2)cc(OCC)c1OCC,19
12,CC1(c2cccc(Br)c2)NC(=O)N(CC(=O)Nc2cccnc2Cl)C1=O (stereo not shown),14.5
13,Cc1cc(=O)oc2cc(OCC(=O)NCCc3c[nH]c4ccc(F)cc34)ccc12,16.1
14,O=C(O)c1ccccc1NC(=O)c1ccccc1Nc1ccccc1,11.9
15,CCN(CC)c1ccc2cc(-c3nc(-c4ccc(OC)cc4)cs3)c(=O)oc2c1,9.74
16,COc1ccc(C(O)P(=O)(OC2CCCCC2)c2ccc(N(C)C)cc2)cc1OC (stereo not shown),3.71
17,Cc1ccc(NC(=O)c2ccc3c(=O)n4c(nc3c2)CCCCC4)nc1,-27.3
18,O=C(/C=C\c1ccc2c(c1)OCO2)NC1(C(=O)Nc2ccc3c(c2)OCO3)CCCCC1,4.19
19,C=CCSc1nc(-c2ccccc2)c2cc(Cl)ccc2n1,12.8
20,CCCc1cc(CNC(=O)C2CCC(=O)N(CCc3cccc(F)c3)C2)on1 (stereo not shown),6.37
21,O=C(Cc1cccs1)N/N=C/C=C\c1ccccc1[N+](=O)[O-],-3.17
22,O=C(NC1CCCCC1)C1CC(=O)N(c2ccccc2)C1 (stereo not shown),13.6

row,Compound,"hERG current change (%, negative = inhibition) at 1uM [%]"
1,Cc1ccc(C(=O)OCC(=O)c2cc(C)n(CC3CCCO3)c2C)cc1 (stereo not shown),1.99
2,CN(C)/C=N/C(=S)Nc1ccc(Cl)cc1,8.96
3,CC1=C(Sc2nc3ccccc3[nH]2)C(=O)NC(C)(C)C1,4.3
4,CCOC(=O)c1c(C)nc2sc3c(=O)n(-c4ccc(C(C)=O)cc4)cnc3c2c1-c1ccc(OC)cc1,13.3
5,CCOC(=O)N1CCN(C(=O)c2cc(-n3cnnc3)ccc2Cl)CC1,1.73
6,CC1(CC(=O)N/N=C/c2cc(Br)c(O)cc2O)OCCO1,15.9
7,CCOc1ccc(S(=O)(=O)c2cn(C)c3cc(OC)c(OC)cc3c2=O)cc1,8.45
8,C#Cc1ccc([C@@H]2C=C(C(=O)N3CCN(Cc4ccccc4)CC3)O[C@H](OCCCCO)C2)cc1,-4.54
9,COc1ccccc1C(=O)C1CCCN(C(=O)C2CCCC2)C1 (stereo not shown),8.68
10,COc1ccc(/C=N/Nc2nc(Nc3ccccc3)nc(N3CCCCC3)n2)cc1OC,14.1
11,C(=N\N1CCN(C(c2ccccc2)c2ccccc2)CC1)/c1ccc2c(c1)OCO2,7.82
12,Cc1ccccc1NS(=O)(=O)c1ccc2[nH]cc(C(=O)NCCCN3CCOCC3)c(=O)c2c1,6.69
13,CCOC(=O)CSc1nc2cc(C)ccc2cc1C#N,5.78
14,COc1ccc(Cl)cc1-c1nc(SCC(=O)NC(C)C(C)C)n[nH]1 (stereo not shown),11.4
15,O=C(/C=C/c1ccc(S(=O)(=O)N2CCOCC2)cc1)NC(=S)Nc1ccc(Cl)cc1Cl,6.34
16,CC(=O)Nc1ccc(NC(=O)Nc2ccccc2)cc1,11.4
17,CCC(=O)Nc1ccc(C(=O)Nc2cccnc2)cc1,-4.71
18,CC(=O)NCCn1c(SCC(=O)NC2CCCCC2)nc2ccccc2c1=O,12.8
19,Cc1n[nH]c(=O)nc1N/N=C/c1cccs1,14.8
20,Cc1cc(/C(N)=N/OC(=O)c2cccc(Cl)c2)no1,9.17
21,CN(C)CCOC(=O)C(c1ccccc1)C1(O)CCCC1.Cl (stereo not shown),19
22,Cc1cc(C)c(S(=O)(=O)NCC(c2ccc3c(c2)OCO3)N2CCOCC2)c(C)c1 (stereo not shown),10.1

row,Compound,"hERG current change (%, negative = inhibition) at 1uM [%]"
1,CCC(C)NC(=O)c1ccc(C(=O)c2ccccc2)cc1 (stereo not shown),13.6
2,CCOC(=O)C1=C(C)OC(N)=C(C#N)C1c1ccc(OC)c(C)c1OC (stereo not shown),-2.43
3,CCC(=O)N1N=C(c2ccc(C)cc2)CC1c1ccco1 (stereo not shown),11.9
4,CC1CCN(C(=O)CNC(=O)c2cccc(OC(F)F)c2)CC1,1.43
5,C#Cc1ccc([C@H]2C=C(C(=O)O)O[C@@H](OCc3ccc(CO)cc3)C2)cc1,15.4
6,O=C(CCCN1C(=O)c2ccccc2C1=O)Nc1ccccc1,11.7
7,COCc1[nH][nH]c(=O)c1C=Nc1ccc(Cl)cc1,12.2
8,O=C1CSC(c2cccc([N+](=O)[O-])c2)N1c1ccc(O)cc1 (stereo not shown),5.24
9,CCCCNC(=O)c1onc(CSc2cccc(F)c2)c1C(=O)O,17.4
10,CCOc1ccc(NC(=O)Nc2ccccc2C(N)=O)cc1,1.08
11,COc1cccc2[nH]c3c(N4CCN(Cc5ccc6c(c5)OCO6)CC4)ncnc3c12,7.87
12,Cc1cccc2cc(CN(CCN3CCCC3)C(=O)NC3CCCCC3)c(=O)[nH]c12,-12.5
13,O=C(NCCc1ccccc1)C(=Cc1ccc(C(=O)O)cc1)C(=O)NCCc1ccccc1,-1.66
14,COc1ccc(C(=O)N2CCN(c3nc4cc(C)ccc4cc3C#N)CC2)c(OC)c1,9.93
15,O=C1C=C(NCc2ccccc2)CCC1,14.3
16,CCOC(=O)C1CCCN(C(=O)c2[nH]c3ccc(OC)cc3c2C)C1 (stereo not shown),16.8
17,COc1ccc(C2c3ccc(O)cc3Oc3ncn(Cc4ccco4)c(=N)c32)cc1OC (stereo not shown),-75.9
18,Cc1cc(Nc2ccccc2Cl)n2nnnc2n1,9.18
19,Cc1ccsc1/C=N/NC(=O)CNC(=O)c1cccc([N+](=O)[O-])c1C,16.9
20,COc1cccc(CN2CC=C(c3ccc(F)cc3)CC2)c1,8.58
21,COCCNc1nc2nonc2nc1N(C)Cc1cccc2cnccc12,3.55
22,O=C(Nc1nccs1)c1ccc[nH]c1=O,11.7

# Source: article PMC4336329 (PLoS ONE, 2015)
